Results from article PMC3213158.
Results are given in words; binding and its absence hold for the method and conditions named. Binding seen in cells or lysates may run through a third protein. Some entries that bind do so weakly or less than the wild type. For part of these data: Tags and fused reporters may be left off the sequences shown.

What was measured:
[1] = target: T1, HDA6-cEYFP (Arabidopsis thaliana) (UniProt Q9FML2); test: split reporter; BiFC with nEYFP and cEYFP fusions co-expressed in onion epidermal cells by biolistic bombardment; EYFP fluorescence imaged by confocal microscopy 24-48 hrs after bombardment
T1 sequence: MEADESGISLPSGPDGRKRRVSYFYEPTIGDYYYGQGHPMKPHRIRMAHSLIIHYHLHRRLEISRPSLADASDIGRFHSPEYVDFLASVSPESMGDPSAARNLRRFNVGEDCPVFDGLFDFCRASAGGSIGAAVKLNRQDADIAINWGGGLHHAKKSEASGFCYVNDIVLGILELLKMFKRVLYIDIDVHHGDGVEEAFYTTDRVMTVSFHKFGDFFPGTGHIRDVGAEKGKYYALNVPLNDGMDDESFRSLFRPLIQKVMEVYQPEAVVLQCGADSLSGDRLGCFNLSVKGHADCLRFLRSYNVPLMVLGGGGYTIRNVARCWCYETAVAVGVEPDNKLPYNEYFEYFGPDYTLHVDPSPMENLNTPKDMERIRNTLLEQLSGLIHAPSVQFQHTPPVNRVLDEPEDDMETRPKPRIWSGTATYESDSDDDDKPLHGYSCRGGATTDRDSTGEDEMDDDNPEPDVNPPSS

[2] = target: T2, HDA6-FLAG (Arabidopsis thaliana) (UniProt Q9FML2); test: co-IP; total protein extracts of F1 seedlings (HDA6-FLAG crossed to MSI5-YFP-HA or HA-FVE) immunoprecipitated with anti-FLAG M2 affinity gel; western blot with anti-HA
T2 sequence: T1 sequence

[3] = target: T3, MSI5-YFP-HA (Arabidopsis thaliana) (UniProt Q9SU78); test: co-IP; total protein extracts of transgenic seedlings immunoprecipitated with anti-HA agarose; western blot with anti-GFP or anti-myc
T3 sequence: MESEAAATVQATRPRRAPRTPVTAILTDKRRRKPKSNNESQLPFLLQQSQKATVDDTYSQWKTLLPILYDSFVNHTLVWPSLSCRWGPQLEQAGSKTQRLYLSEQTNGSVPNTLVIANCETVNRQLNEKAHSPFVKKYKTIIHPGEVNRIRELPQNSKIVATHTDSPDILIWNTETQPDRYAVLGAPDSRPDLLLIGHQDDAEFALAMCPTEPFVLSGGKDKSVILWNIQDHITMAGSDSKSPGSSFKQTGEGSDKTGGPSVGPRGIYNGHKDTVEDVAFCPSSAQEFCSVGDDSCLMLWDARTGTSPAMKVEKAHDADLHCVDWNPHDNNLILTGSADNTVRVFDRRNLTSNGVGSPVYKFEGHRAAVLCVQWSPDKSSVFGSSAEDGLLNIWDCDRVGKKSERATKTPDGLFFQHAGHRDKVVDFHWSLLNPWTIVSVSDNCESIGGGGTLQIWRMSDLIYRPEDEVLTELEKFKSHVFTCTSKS

[4] = target: T4, HA-FVE (Arabidopsis thaliana), O22607; test: as above; conditions: remark: other sources report otherwise
T4 chain: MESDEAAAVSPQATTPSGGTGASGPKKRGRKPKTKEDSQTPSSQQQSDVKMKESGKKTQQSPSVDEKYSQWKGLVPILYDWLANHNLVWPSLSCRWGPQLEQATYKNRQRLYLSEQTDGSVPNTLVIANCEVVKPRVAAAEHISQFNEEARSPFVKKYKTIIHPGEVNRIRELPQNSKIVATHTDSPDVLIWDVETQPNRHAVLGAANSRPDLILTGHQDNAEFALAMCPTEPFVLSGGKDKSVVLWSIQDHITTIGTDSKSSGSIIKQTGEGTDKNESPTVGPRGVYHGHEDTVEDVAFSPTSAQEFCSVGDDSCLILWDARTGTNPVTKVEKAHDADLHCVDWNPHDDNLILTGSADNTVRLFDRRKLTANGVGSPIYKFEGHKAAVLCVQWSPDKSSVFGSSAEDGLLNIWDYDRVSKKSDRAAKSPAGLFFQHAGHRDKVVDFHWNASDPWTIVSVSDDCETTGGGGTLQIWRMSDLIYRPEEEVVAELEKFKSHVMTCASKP

B1: nEYFP-FVE (protein, UniProt O22607 1-507)
chain: T4 chain
With B1 the binding [1] was “binds”.

B2: nEYFP-MSI5 (protein, UniProt Q9SU78 1-487)
chain: T3 sequence
With B2 the binding [1] was “binds”.

B3: MSI5-YFP-HA (protein, UniProt Q9SU78 1-487)
chain: T3 sequence
With B3 the binding [2] was “binds”.

B4: HA-FVE (protein, UniProt O22607 1-507)
chain: T4 chain
With B4 the binding [2] was “binds weakly”.

B5: FLD-myc (protein, UniProt Q9CAE3 1-789)
chain: MVSFSAPKKRRRGRSQRSMSSLNSLPVPNVGLLPGNSNFVSSSASSSGRFNVEVVNGSNQTVKSYPGIGDEIITINKEATTEALLALTAGFPADSLTEEEIEFGVVPIVGGIEQVNYILIRNHIISKWRENISSWVTKEMFLNSIPKHCSSLLDSAYNYLVTHGYINFGIAQAIKDKFPAQSSKSSVIIVGAGLSGLAAARQLMRFGFKVTVLEGRKRPGGRVYTKKMEANRVGAAADLGGSVLTGTLGNPLGIIARQLGSSLYKVRDKCPLYRVDGKPVDPDVDIKVEVAFNQLLDKASKLRQLMGDVSMDVSLGAALETFRQVSGNDVATEEMGLFNWHLANLEYANAGLVSKLSLAFWDQDDPYDMGGDHCFLPGGNGRLVQALAENVPILYEKTVQTIRYGSNGVKVTAGNQVYEGDMVLCTVPLGVLKNGSIKFVPELPQRKLDCIKRLGFGLLNKVAMLFPYVFWSTDLDTFGHLTEDPNYRGEFFLFYSYAPVAGGALLIALVAGEAAHKFETMPPTDAVTRVLHILRGIYEPQGINVPDPLQTVCTRWGGDPFSLGSYSNVAVGASGDDYDILAESVGDGRLFFAGEATTRRYPATMHGAFVTGLREAANMAQSAKARGIRKRIDRNPSRNAHSCAILLADLFRDPDLEFGSFCIIFSRRNPDPKSPAILRVTLSEPRKRNEDPKADQHSNKILFQQLQSHFNQQQQIQVYTLLTRQQALDLREVRGGDEKRLYYLCETLGVKLVGRKGLGVGADSVIASIKAERTGRKLPSSSTSGTKSG
B5 was tested, and the binding [3] was “binds”.

B6: GFP-CLF, P93831 1-902 (protein)
chain: MASEASPSSSATRSEPPKDSPAEERGPASKEVSEVIESLKKKLAADRCISIKKRIDENKKNLFAITQSFMRSSMERGGSCKDGSDLLVKRQRDSPGMKSGIDESNNNRYVEDGPASSGMVQGSSVPVKISLRPIKMPDIKRLSPYTTWVFLDRNQRMTEDQSVVGRRRIYYDQTGGEALICSDSEEEAIDDEEEKRDFLEPEDYIIRMTLEQLGLSDSVLAELASFLSRSTSEIKARHGVLMKEKEVSESGDNQAESSLLNKDMEGALDSFDNLFCRRCLVFDCRLHGCSQDLIFPAEKPAPWCPPVDENLTCGANCYKTLLKSGRFPGYGTIEGKTGTSSDGAGTKTTPTKFSSKLNGRKPKTFPSESASSNEKCALETSDSENGLQQDTNSDKVSSSPKVKGSGRRVGRKRNKNRVAERVPRKTQKRQKKTEASDSDSIASGSCSPSDAKHKDNEDATSSSQKHVKSGNSGKSRKNGTPAEVSNNSVKDDVPVCQSNEVASELDAPGSDESLRKEEFMGETVSRGRLATNKLWRPLEKSLFDKGVEIFGMNSCLIARNLLSGFKSCWEVFQYMTCSENKASFFGGDGLNPDGSSKFDINGNMVNNQVRRRSRFLRRRGKVRRLKYTWKSAAYHSIRKRITEKKDQPCRQFNPCNCKIACGKECPCLLNGTCCEKYCGCPKSCKNRFRGCHCAKSQCRSRQCPCFAADRECDPDVCRNCWVIGGDGSLGVPSQRGDNYECRNMKLLLKQQQRVLLGISDVSGWGAFLKNSVSKHEYLGEYTGELISHKEADKRGKIYDRENCSFLFNLNDQFVLDAYRKGDKLKFANHSPEPNCYAKVIMVAGDHRVGIFAKERILAGEELFYDYRYEPDRAPAWAKKPEAPGSKKDENVTPSVGRPKKLA
In the case of B6, the binding [4] is reported as “no binding”.
